# In the supplement of paper PMC3334620:
# The full ranking holds about 33,000 sequences; the median of “E-score (-0.5 to 0.5)” is about -0.016, and the highest 2% start at about 0.31. The list shows a part of the results.
# Molecular target: Cst6 (UniProt P40535)
# Experiment: PBM E-score (8-mer binding enrichment) (E-score (-0.5 to 0.5)); higher = stronger / more preferred TF binding; most listed sequences are background and not binding sites
# Conditions: protein concentration: 200 nM; construct: GST-DNA-binding domain
# Procedure, shortened: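 Full-length yeast transcription factors or their DNA-binding domains, GST-tagged and expressed with PURExpress, were applied at about 100-200 nM to universal all-10-mer Agilent arrays. These arrays had been made double-stranded by primer extension on fresh or once-stripped slides. Detection used fluorescent anti-GST, normalisation used masliner, and E-scores for ungapped eight-base words pooled with reverse complements came from the Universal PBM Analysis Suite.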
row,Sequence,PBM E-score
1,CTCCTGAA,0.0124
2,AACCGAAG,-0.046
3,AGACGTAA,0.371
4,AAGATACC,0.0362
5,GCCCTGCA,-0.0503
6,CCTGCGAG,-0.0845
7,GCTAGACA,-0.0573
8,GGATAGAA,0.183
9,ACTAGGAT,0.105
10,CCCGTACC,-0.0481
11,GCACCCAC,0.0778
12,AATCTGGG,-0.1
13,ATAAGCGG,0.154
14,AAGGGGAA,-0.169
15,AGCTAGGA,-0.172
16,AACAGACT,-0.00426
17,CAGTGGTA,-0.0795
18,CCCCGAAC,-0.288
19,AAGACAGT,-0.113
20,AGTAGAAG,0.0604
21,ACAGGGGC,-0.213
22,AAACTCGT,0.0664
23,CCCTTCAA,-0.00494
24,ACTCGAGC,-0.0936
25,TAGGAGAA,-0.185

row,Sequence,PBM E-score
1,AAATCGGT,-0.0511
2,AGTATTTC,0.197
3,GATTCTCC,-0.194
4,TATGTGGA,0.0371
5,ATGACCGG,-0.019
6,CCCCTGAC,-0.0251
7,AGCAGGAC,-0.13
8,GTGGATTA,0.02
9,CACTCAGA,0.0777
10,AAACTGAG,-0.0611
11,AACGATCA,-0.0508
12,CAGTTAGC,-0.118
13,GTGGCCGA,-0.201
14,CTGCTAAC,-0.0213
15,ACCACACC,-0.185
16,AAGGAGGT,-0.294
17,GGGACCCC,-0.36
18,AGCCGCTG,-0.0413
19,ACCCGTGA,0.109
20,CACCTTCA,-0.171
21,CAAGTACC,-0.25
22,ACGGAGTG,0.0572
23,AGCGCCAT,-0.16
24,AGATCCCT,-0.214
25,AACTCTAG,-0.05

row,Sequence,PBM E-score
1,AGGTCGGC,-0.225
2,CTCCTCGC,-0.24
3,AGCCGCTC,0.0741
4,ATATGCGG,0.0776
5,TGCGAACA,0.0636
6,GGGGAAGA,-0.114
7,ATCGCTAG,0.00259
8,AAAATGAG,0.157
9,CACAGGGG,-0.278
10,CACTGTGC,-0.0708
11,AATGACGG,0.35
12,CCTGTCGA,-0.0378
13,CTGGTAAC,0.0441
14,ACCATCCC,-0.021
15,CTTCCCTA,-0.205
16,ACTCCAAA,0.0486
17,AGTTGCCA,-0.192
18,ACATAGGC,-0.024
19,CCGATGTA,-0.0196
20,CTTCTACC,-0.282
21,ATAGCCAC,0.0409
22,TATAGAAA,0.152
23,AAAGTACC,-0.0753
24,AGACCGTC,-0.127
25,CCTCCGCG,-0.278

row,Sequence,PBM E-score
1,GTTCGCAA,0.181
2,AATATCAG,0.043
3,ACTATAGT,0.166
4,CTGCGGGC,-0.232
5,CTGCGGCC,-0.0683
6,GTCTCGCA,-0.284
7,GAAGTACC,-0.184
8,GGCCCCCC,-0.376
9,GAAATAGA,0.196
10,CAGTCGTA,-0.101
11,AATCGGGT,0.191
12,ACAACACC,0.0839
13,CTTAAAAC,0.155
14,CATTAAAG,0.184
15,CGCCGGCG,0.111
16,CGCTAGAC,-0.347
17,ATCCAAAA,0.0959
18,GCTTCAGA,-0.213
19,CCATAAGA,0.0383
20,CTCATGAG,0.079
21,GAACTAGC,-0.22
22,AAGGCCTG,-0.193
23,AGCGGGGC,-0.149
24,ACCATACG,0.086
25,AGCGAATG,-0.211

row,Sequence,PBM E-score
1,GGTTTACA,0.0693
2,AAACATGC,-0.0218
3,AGTAACGC,0.0516
4,ATTAGCTG,0.0625
5,AAAGTTTA,0.188
6,TAATTACA,0.277
7,CGGGCGCA,-0.173
8,GATGAAAC,0.0812
9,GCGTCACC,0.448
10,CAGAAACG,0.149
11,CTGAAATA,0.0963
12,AACCTTCC,-0.12
13,ATCGAAAA,0.219
14,AATGAGAG,-0.025
15,AACACTGT,-0.0731
16,ATTGGCCC,-0.36
17,CCGCGGAC,-0.12
18,AACTTAAA,0.202
19,ATACTACA,0.186
20,CACCAGCG,-0.0634
21,AACGTTTC,-0.115
22,CAGTAAAG,0.234
23,GGACGACA,0.0793
24,CGCAGAAA,0.0112
25,GGTAGTGA,0.0298

row,Sequence,PBM E-score
1,CACCAACG,-0.0835
2,AAAGCTAC,0.00086
3,CTCCTCTA,-0.232
4,TCGTCTCA,-0.0927
5,GCATTCGA,-0.00988
6,CCCCCGCG,-0.156
7,CAGCAAAA,0.0508
8,CTCTTACC,0.1
9,AGCAGCCT,-0.118
10,AAATTTCG,0.095
11,CCGTAAAA,0.0767
12,GGGTAAAA,0.147
13,GACGGAAA,0.116
14,CTTGCCCA,-0.202
15,AGTCAGTG,-0.0966
16,AGGAAACC,-0.0455
17,ACACGGGG,-0.0685
18,ATACCTGC,-0.151
19,ATCGTAAT,0.296
20,AGCTAATG,-0.0129
21,CCATTCAA,0.0741
22,CGAGACAA,-0.11
23,ACTTAACA,0.128
24,AGCTCACG,-0.0988
25,ACAAAGCA,0.224

row,Sequence,PBM E-score
1,CGCTACAC,-0.0708
2,CGCCGCGC,0.357
3,TATCGCAA,-0.0308
4,CAGAAGCC,-0.016
5,GAGTGAAC,-0.0925
6,GGAGACAC,-0.0358
7,CACTATAC,0.087
8,AATGTGTA,0.046
9,AGGGACGG,-0.197
10,GCAGCGAA,-0.0469
11,ATTCTAGG,-0.0115
12,AGGAACAG,-0.204
13,CTACAGAC,-0.184
14,ATCCTAAT,0.0626
15,ACCCAGCA,-0.177
16,ATCATCTA,0.151
17,CCTTGTTC,-0.124
18,CACCCAGA,0.0656
19,CATTGGCG,-0.093
20,ATAGTGAC,0.392
21,ATGGTTGC,-0.223
22,ATGACGTA,0.498
